Laboratory results published in article PMC12040169 (PLOS Biology, 2025).
The other results are listed elsewhere or left out.

These compounds were tested on T1, C. trachomatis L2/434/Bu expressing GFP (CTL2-GFP). Conditions: total inclusion area; 28.5 h, 10 µM; inhibitor.
T1 construct: L2/434/Bu GFP intracellular growth in HeLa cells
Set-up: species or system HeLa; C. trachomatis total inclusion area by high-content imaging, normalised to DMSO
Method in brief: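 Bulk GFP and resorufin signals were read first. Wells were then fixed, stained with Hoechst and imaged to detect GFP inclusions and host nuclei. MICs followed the previously described calculation.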

Compound	% of control remaining
O=C(Nc1ncn(CC(=O)N2CCCCCC2)n1)c1cccc(F)c1 [CBK304904]	109.152
C1=CC2CC1CC2CN1CCC(N(CCc2ccccc2)Cc2ccccc2)CC1 (stereo not shown) [CBK264613G]	94.0847
NC(=O)C1CCN(C(=O)CCCSc2nc(-c3ccco3)cc(C(F)(F)F)n2)CC1 [CBK268844]	86.4936
Cn1c(CSCc2ccccc2F)nnc1SCC(=O)c1ccc(Br)cc1 [CBK269143]	111.22
CC(C)CN1C(=O)c2ccc(C(=O)NCc3ccc(C(=O)O)cc3)cc2C1=O [CBK286898]	57.9985
COc1ccc(S(=O)(=O)Nc2nnc(C(C)C)s2)cc1 [CBK045525]	114.624
COc1ccc(C2=CC(c3ccc(C(F)(F)F)cc3)n3nnnc3N2)cc1OC (stereo not shown) [CBK296131]	92.2312
CC(Sc1ccccn1)C(=O)Nc1ccc(S(N)(=O)=O)cc1 (stereo not shown) [CBK265579]	96.6015
COc1cc(-c2cn3ccnc3c(NC3CC3)n2)cc(OC)c1OC [CBK066184]	93.1732
O=c1[nH]c(=O)c2nnc(N/N=C\c3ccc(O)cc3)nc2[nH]1 [CBK263312]	107.448
O=C(NCCCN1CCOCC1)c1cnc(-c2ccccc2)c(-c2ccncc2)c1 [CBK036664]	105.191
Cc1ccccc1NC(=O)c1cnn2cccnc12 [CBK288217]	67.1132
COc1ccc(NC(=S)NCCCN(C)C)cc1 [CBK264292]	93.472
CCCC/C=C/c1cncc(Nc2cc(OC)c(OC)c(OC)c2)n1 [CBK065155]	110.006
CCN(CC)C(=O)CN1CCN(c2nccnc2Oc2ccc(OC)c(OC)c2)CC1 [CBK083051T]	108.3
COc1ccc(-c2ccc3c(c2)C(=O)N2CC[C@H](NC(=O)C4CCCC4)[C@H]2C(=O)N3)cc1 [CBK289330]	126.774
COc1cccc(C(c2nnnn2C(C)(C)C)N2CCN(c3cccc(Cl)c3)CC2)c1 (stereo not shown) [CBK141669]	99.3942
CC1(C)CC(NC(=O)c2cc3cccnc3[nH]2)CCO1 (stereo not shown) [CBK305467]	71.219
N#Cc1c(NC(=O)CSc2nnc(-c3ccncc3)o2)sc2c1CCCC2 [CBK266374]	111.133
O=C1C2C(c3ccc(F)cc3)NC(c3ccc(F)cc3)C1C(c1ccc(F)cc1)NC2c1ccc(F)cc1 (stereo not shown) [CBK261288]	87.7473
CC(C)(C)OC(=O)c1cc(C(=O)O)ccc1O [CBK000394]	16.1414
Cc1cc(-c2cn3cc(C(=O)NCCN(C)C)nc3c(=O)n2C)c(C)o1 [CBK307160]	73.0426
Cc1ccc(C2(C(=O)N(C)CCN3CCCCC3)CCOCC2)cc1 [CBK281833]	103.01
CCN(CC)c1cc(N2CCCNCC2)ccc1S(=O)(=O)c1cccc(F)c1 [CBK018509C]	58.8897
CC(C)(C)OC(=O)N1CCN(c2cc(N)ncn2)CC1 [CBK001963]	58.8423
COc1ccc(Cc2nc(C(C)(C)C)cs2)cc1 [CBK021497B]	72.7432
O=C(COc1ccccc1)N1CCN(Cc2ccncc2)CC1 [CBK072595]	86.8736

Compound	% of control remaining
CC(C)C(CNCc1ccn(C)c1)c1ccnn1C (stereo not shown) [CBK304822]	106.14
O=C(Cn1cnnn1)N1CCN(Cc2ccccc2)CC1 [CBK026053]	100.797
Cc1nc(C)c(CCC(=O)NC2CCSc3c(F)cccc32)c(=O)[nH]1 (stereo not shown) [CBK295601]	90.1551
Cc1[nH]c(=O)[nH]c(=O)c1N(CCO)CCO [CBK262052]	99.9342
COc1cc(C(=O)N2CCC3(CCN(C(=O)Cc4c[nH]c5ccccc45)C3)C2)cc(OC)c1OC (stereo not shown) [CBK131448]	93.0949
Cc1nc(CN2CCC3(CC2)CN(C(=O)C(C)C)c2ccccc23)cs1 [CBK131476]	102.24
CC(C)[C@@H](CO)Nc1cncc(-c2ccc(O)cc2)n1 [CBK066038]	79.6617
CC1c2ccsc2CCN1C(=O)c1ccnn1C(C)C (stereo not shown) [CBK282079]	108.859
Cc1c(-c2cc(C(=O)NC(C)C3CC4CCC3C4)on2)cnn1C (stereo not shown) [CBK281651]	81.378
O=C(Nc1ccc2n(c1=O)C[C@H]1C[C@@H]2CN(C(=O)Cc2cccs2)C1)c1ccccc1 [CBK288709]	99.6646
COc1cc(-c2cnc3[nH]c(=O)n([C@@H](CO)C(C)C)c3n2)cc(OC)c1OC [CBK064471]	120.285
Cc1cc(COc2nc3ccccc3nc2N2CCCC2)no1 [CBK115768]	87.34
O=C(NC(=S)Nc1ccc(N2CCN(Cc3ccccc3F)CC2)cc1)c1ccco1 [CBK268946]	114.281
CC(=O)c1ccc(-c2cc(C(=O)NCc3cccc(C(F)(F)F)c3)cnc2-c2ccccc2)s1 [CBK036641]	99.1291
O=c1[nH]nc(CSCc2ccccc2Cl)[nH]1 [CBK267427]	86.7377
CC(C)(C)c1ccc(S(=O)(=O)N2CCCC[C@H]2COC(=O)COCC(=O)O)cc1 [CBK200064]	80.2174
O=C1NN=C(O)C1Cc1ccccc1 (stereo not shown) [CBK067758]	98.4198
N/C(=N\OC(=O)COc1cccc2ccccc12)c1ccc(Cl)cc1 [CBK263004]	81.5151
O=C(CCN1CCOCC1)Nc1ccc(Cl)cc1 [CBK263820]	23.8042
CCOC(=O)C1C2CCC3(CC(=O)c4cc(Cl)ccc4O3)C21 (stereo not shown) [CBK284858]	89.2323
CC(=O)NC1(c2ccccc2)CCN(CC(O)c2ccccc2)CC1 (stereo not shown) [CBK284819]	87.7891
CSc1cccc(-c2cnccc2-n2ccnc2)c1 [CBK177155]	92.1522
CC(C)(C)c1ccc(Oc2ccc(NC(=O)CCCC(=O)O)cc2)cc1 [CBK264339]	102.639
COc1ccccc1C(=O)Nc1sc2c(c1C(=O)NCc1ccco1)CCCC2 [CBK265105]	123.564
Cc1ccc(Cc2cnc(NC(=O)C3CNC(=O)N3)s2)cc1F (stereo not shown) [CBK305919]	44.8293
Cc1c(C(=O)N(C)CC(F)(F)F)nnn1-c1ccc(F)cc1 [CBK282214]	97.7548
CCCCn1c(NCc2nc3ccccc3n2C)nc2ccccc21 [CBK264177]	111.589

Compound	% of control remaining
CC(=O)Nc1ccccc1NC(=O)C(C)Oc1ccc(Cl)cc1Cl (stereo not shown) [CBK263954]	88.887
C#CCNC(=O)CC[C@H]1CNC(=O)[C@@H]2[C@@H](CCN2Cc2ccc(O)cc2)N1C [CBK289017]	125.263
CCc1nc2ccc(C(=O)N3CCNC(=O)C3)cn2c1N(CCC(C)C)CCN(C)C [CBK146255]	97.0645
Cc1ccc(NC(=O)Cn2cnc3c(-c4ccccc4)csc3c2=O)cc1 [CBK287812]	91.1696
O=S(=O)(c1ccc(F)cc1)c1nc(-c2cccs2)oc1N1CCN(Cc2ccccc2)CC1 [CBK267672]	95.7932
O=C(O)Cc1nnc(CNc2ccc(Cl)cc2)[nH]1 [CBK286651]	47.7631
COCCN1CCCC(NS(=O)(=O)c2cccc(C(C)=O)c2)C1 (stereo not shown) [CBK305290]	72.2774
COc1ccccc1CCCNC(=O)c1ccc(=O)n(C)c1 [CBK282636]	107.348
Cc1ccc(C)c(C(=O)C2=C(O)C(=O)N(CCCN3CCOCC3)C2c2cccc([N+](=O)[O-])c2)c1 (stereo not shown) [CBK265503]	68.1564
CCCn1c(SC(C)C(=O)Nc2ccc(S(=O)(=O)NC(C)C)cc2)n[nH]c1=O (stereo not shown) [CBK295169]	80.1776
CCn1nc(CC(C)C)cc1C(=O)NCCc1cn2cccnc2n1 [CBK306553]	90.7055
C[C@@H]1C(=O)O[C@H]2[C@H]1CC[C@@]1(C)Cc3sc(NC(=O)CCC(=O)O)nc3[C@@H](C)[C@H]21 [CBK289429]	114.541
CC(C)(C)c1ccc(NC(=O)N(CCN)Cc2c[nH]c(-c3ccccc3)n2)cc1 [CBK046297C]	10.1708
Cc1oc2cc(OCC(=O)NCC(=O)O)ccc2c(=O)c1-c1ccc(Cl)cc1 [CBK286697]	69.6365
Cc1cc(C)n(C(CC(=O)N2CCCCC2)C(=O)O)n1 (stereo not shown) [CBK286806]	103.62
CC1=NN(c2nc(-c3cccc([N+](=O)[O-])c3)cs2)C(=O)C1/N=N/c1ccc(S(N)(=O)=O)cc1 (stereo not shown) [CBK262434]	110.021
Cc1ccc2c(c1)OC(C)(C)CC2NS(C)(=O)=O (stereo not shown) [CBK307620]	92.411
CCCN1CCC(N2CCN(c3ccc([N+](=O)[O-])cc3)CC2)CC1 [CBK018459]	80.6282
CN(C)CCCNC(=O)c1ccc(/C=N/O)[n+](C)c1 [CBK278284I]	119.92
COc1cc(CN2CCC3(CC2)CN(CC(N)=O)c2ccccc23)cc(OC)c1OC [CBK126774]	89.3751
COCCNc1nc(-c2cncc(OC)c2)cnc1N [CBK063606]	94.1685
N#CCCCN1CCC(Oc2nccnc2OCC2COc3ccccc3O2)CC1 (stereo not shown) [CBK082994T]	87.1408
Oc1ccc(/C=C/c2nc(-c3ccccc3O)n(-c3ccccc3)n2)cc1 [CBK265289]	93.4548
O=C1CC(c2ccco2)Cc2c1cnn2-c1nc2ccccc2s1 (stereo not shown) [CBK269292]	111.452
O=C(NCc1ccccc1)c1ccc(NC(=O)c2cc(-n3cnnc3)ccc2Cl)cc1 [CBK267896]	88.9704
